Inconclusive means that the source gave no clear call. Such entries were picked first, then a sample of the others. Where the call is inconclusive, the potency comes from a doubtful curve fit. Calls of active or inactive are those of the source. The call rests on the fitted dose curve; in most records, active means well fitted activation curve with a large enough effect; inconclusive means small, poorly fitted or top-dose-only effect; inactive means flat fitted curve, though single readings scatter.
These compounds were tested against Relaxin receptor 2 (Homo sapiens) (UniProt Q8WXD0) (assay: qHTS Assay for Agonists of the Relaxin Receptor RXFP1: RXFP2 Hit Validation). Conditions: HEK293 RXFP2 cAMP TR-FRET, 30 min; series mostly up to 115 µM; activation: at the top concentration.
UniProt Q8WXD0, sequence (Q8WXD0 whole entry, looked up): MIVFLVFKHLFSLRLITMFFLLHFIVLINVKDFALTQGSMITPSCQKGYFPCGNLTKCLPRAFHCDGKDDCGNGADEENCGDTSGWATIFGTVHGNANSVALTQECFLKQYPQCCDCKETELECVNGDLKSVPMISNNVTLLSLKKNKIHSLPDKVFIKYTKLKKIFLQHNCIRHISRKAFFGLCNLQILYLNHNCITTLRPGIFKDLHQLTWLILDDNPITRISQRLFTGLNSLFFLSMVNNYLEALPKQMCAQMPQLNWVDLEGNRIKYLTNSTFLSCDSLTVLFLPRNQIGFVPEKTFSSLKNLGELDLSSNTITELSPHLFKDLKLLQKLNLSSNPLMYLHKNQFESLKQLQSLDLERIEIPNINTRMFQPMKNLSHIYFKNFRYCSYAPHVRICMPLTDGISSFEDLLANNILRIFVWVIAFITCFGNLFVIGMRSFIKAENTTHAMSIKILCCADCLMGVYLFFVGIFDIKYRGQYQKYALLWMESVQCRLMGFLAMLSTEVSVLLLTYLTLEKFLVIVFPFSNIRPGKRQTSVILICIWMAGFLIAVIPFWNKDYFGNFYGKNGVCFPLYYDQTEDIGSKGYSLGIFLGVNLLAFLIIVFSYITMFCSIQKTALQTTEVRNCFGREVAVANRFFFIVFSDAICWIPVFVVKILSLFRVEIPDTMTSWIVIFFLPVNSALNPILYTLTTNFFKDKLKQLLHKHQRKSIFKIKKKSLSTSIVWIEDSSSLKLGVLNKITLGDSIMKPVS
Outline: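 HEK293 cells expressing RXFP2, cultured 16-24 hr, treated 30 min at 37C with compounds plus PDE4 inhibitor Ro 20174. cAMP measured by HTRF TR-FRET; EC50 from Hill fits, normalized to buffer and 29 nM porcine relaxin.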
Further: nearly all actives have a fitted effect of over 65% in size.
Potency means the concentration at half of the fitted maximal effect; tags describe the fitted curve by direction and shape.
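Wherever activation is given: 0% = buffer only basal cAMP and 100% = 29 nM porcine relaxin.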

Compound	Potency	activation
COc1cc(/C=N/NC(=O)Cn2cnc3c2c(=O)n(C)c(=O)n3C)ccc1O	inconclusive: 38.9 µM [activator, partial curve]	
O=C(CSc1ccc2nnc(-c3cccnc3)n2n1)Nc1ccccc1	inconclusive: 34.6 µM [activator, partial curve]	
CC1CCN(S(=O)(=O)c2ccc3nc(N4CCN(c5ccccc5)CC4)ccc3c2)CC1	active: 15.4 µM	
CCOc1ccc2cc(C#N)c(SCC(=O)NC(C)CC)nc2c1 (stereo not drawn)	active: 6.15 µM	
N#CCCSc1ncnc2c1oc1ccccc12	active: 19.4 µM	
COc1ccc(/C=C2/SC(=O)N(CCC(=O)Nc3ccc(C)cc3)C2=O)cc1OC		inactive: -63.1%
CCCCn1c(SCC(=O)N2CCOCC2)nc2c1c(=O)n(C)c(=O)n2C	active: 38.9 µM	
CN(Cc1ccccc1)C(=O)c1ccccc1NC(=O)c1ccco1		inactive: 3.37% [at 125 µM]
CC(=O)CCCCn1c(=O)c2c(ncn2C)n(C)c1=O		inactive: 25.5%
O=C(Nc1ccccc1C(=O)NCc1ccc(Cl)cc1)c1ccco1		inactive: -1.91% [at 125 µM]
COc1ccc(S(=O)(=O)N2CCOCC2)cc1NC(=O)CSc1cccc[n+]1[O-]	inconclusive: 38.9 µM [activator, partial curve]	
CCN1CCN(C(=O)CCc2nnc3ccc(N4CCN(c5cccc(OC)c5)CC4)nn23)CC1	inconclusive: 34.6 µM [activator, partial curve]	
O=C(CCc1nnc2ccc(N3CCC4(CC3)OCCO4)nn12)NCc1ccc(F)cc1	inconclusive: 38.9 µM [activator, partial curve]	

Source: PubChem BioAssay AID489043 (National Center for Advancing Translational Sciences (NCATS), 2010)
